Among all 220,000 compounds or so, about 5,700 (2.6%) were called active. This list was built around the results that the source calls inconclusive (neither active nor inactive); the mix of calls is not that of the screen. Calls follow the shape of the dose curve; as a rule, active = well fitted inhibition curve with a large enough effect; inconclusive = small, poorly fitted or top-dose-only effect; inactive = no such curve, though single readings can be large or run the other way. A potency beside an inconclusive call is a rough fit, not a confirmed value.
These molecules were tested against Lysine-specific demethylase 5B (Homo sapiens) (UniProt Q9UGL1) (assay: Primary screen for KDM5B Histone Demethylases FDH-coupled qHTS). Conditions: FDH-coupled NADH fluorescence (FDH is formaldehyde dehydrogenase); activity change, negative = inhibition: at 57.7 µM (top of the series) unless noted.
Sequence of UniProt Q9UGL1 (Q9UGL1 whole entry, looked up): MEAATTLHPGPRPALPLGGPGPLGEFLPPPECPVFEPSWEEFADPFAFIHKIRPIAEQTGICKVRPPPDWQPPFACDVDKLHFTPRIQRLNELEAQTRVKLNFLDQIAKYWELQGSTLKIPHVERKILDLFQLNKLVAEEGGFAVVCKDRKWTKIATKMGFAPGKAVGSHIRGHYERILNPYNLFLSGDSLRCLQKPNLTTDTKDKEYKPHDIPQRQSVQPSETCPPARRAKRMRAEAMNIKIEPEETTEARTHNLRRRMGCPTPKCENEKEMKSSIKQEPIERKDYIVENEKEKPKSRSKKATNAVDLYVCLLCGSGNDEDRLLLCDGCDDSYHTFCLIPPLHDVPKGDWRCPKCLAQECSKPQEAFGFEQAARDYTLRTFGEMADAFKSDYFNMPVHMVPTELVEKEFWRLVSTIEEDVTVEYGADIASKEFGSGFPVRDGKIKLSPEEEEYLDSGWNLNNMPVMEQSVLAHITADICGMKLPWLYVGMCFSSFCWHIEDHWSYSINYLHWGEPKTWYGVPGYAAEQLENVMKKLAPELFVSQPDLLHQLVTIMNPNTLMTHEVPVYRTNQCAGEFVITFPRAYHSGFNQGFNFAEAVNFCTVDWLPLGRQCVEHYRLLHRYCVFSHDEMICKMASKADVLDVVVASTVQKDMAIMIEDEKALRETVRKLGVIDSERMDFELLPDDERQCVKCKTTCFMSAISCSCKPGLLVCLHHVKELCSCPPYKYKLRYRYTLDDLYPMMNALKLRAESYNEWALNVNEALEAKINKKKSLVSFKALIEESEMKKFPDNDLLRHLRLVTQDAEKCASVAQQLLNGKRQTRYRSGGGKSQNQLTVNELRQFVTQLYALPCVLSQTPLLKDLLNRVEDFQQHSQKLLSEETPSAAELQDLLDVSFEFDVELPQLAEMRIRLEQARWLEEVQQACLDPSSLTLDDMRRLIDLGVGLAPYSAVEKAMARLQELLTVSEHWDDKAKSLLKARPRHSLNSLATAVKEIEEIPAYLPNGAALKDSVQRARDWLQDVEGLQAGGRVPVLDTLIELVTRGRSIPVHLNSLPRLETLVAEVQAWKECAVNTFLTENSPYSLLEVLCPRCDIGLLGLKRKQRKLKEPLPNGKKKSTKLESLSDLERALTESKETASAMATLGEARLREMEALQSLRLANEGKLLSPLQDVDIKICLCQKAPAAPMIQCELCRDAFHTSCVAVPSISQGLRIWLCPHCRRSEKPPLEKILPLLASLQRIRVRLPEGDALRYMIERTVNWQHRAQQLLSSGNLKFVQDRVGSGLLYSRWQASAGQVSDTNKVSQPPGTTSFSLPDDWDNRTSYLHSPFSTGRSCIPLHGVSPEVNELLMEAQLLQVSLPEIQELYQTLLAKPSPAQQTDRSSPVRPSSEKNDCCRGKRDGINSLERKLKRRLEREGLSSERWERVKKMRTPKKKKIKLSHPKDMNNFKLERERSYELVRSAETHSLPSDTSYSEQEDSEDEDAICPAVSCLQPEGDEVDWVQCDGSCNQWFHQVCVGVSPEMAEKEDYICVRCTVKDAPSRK
In short: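 qHTS format, multiple compound concentrations. Buffer 50 mM HEPES pH 7.5/0.01% Tween-20; 200 nM KDM5BΔAP final; 10 min compound preincubation; substrate-mix levels 12.5 µM peptide, 25 µM α-KG, 0.25 mM NAD⁺; 30 min RT; ΔRFU.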
For `O=C(O)CCCCCCCCC#CC#CCCc1ccccc1`, the “activity change, negative = inhibition” value was inactive: 11.6%. In the case of `COc1ccc(CCNC(=O)c2ccc3nc(C)cn3c2)cc1`, the Potency is reported as active: 28.2 µM. `O=C(NCc1cccnc1)c1ccc2c(c1)n(Cc1ccccc1)c(=O)c1ccnn12` was tested, and the Potency was active: 28.2 µM. For `N#C/C(=C\c1ccc(Cl)cc1)c1nc2ccccc2[nH]1`, the Potency was inconclusive: 1.12 µM [inhibitor, full curve, poor fit]. For `Cc1cc(C)c2c(C(C)(C)C)nn(-c3ccccc3)c2n1`, the Potency was inconclusive: 28.2 µM [inhibitor, single point]. `O=c1[nH]cccc1-c1nc2ccccc2n1Cc1ccccc1F` was tested, and the Potency was inconclusive: 25.1 µM [inhibitor, partial curve, poor fit]. With `O=C(Cc1ccccc1)Nc1sc2c(c1C(=O)Nc1ccc(Cl)cc1)CCCC2` the Potency was inconclusive: 7.08 µM [inhibitor, partial curve, poor fit]. With `COc1ccccc1C(=O)OCc1cccc(C#N)c1` the “activity change, negative = inhibition” value was inactive: -6.52%. `O=C(NCCc1csc(-c2cccc(F)c2)n1)c1cccs1` was tested, and the Potency was inconclusive: 3.55 µM [inhibitor, full curve, poor fit]. `CCOc1ccc(Nc2cc(C(=O)N3CCOCC3)c3ccccc3n2)cc1` was tested, and the “activity change, negative = inhibition” value was inactive: -21.2%. For `CC(=O)CNC(C)(C)C(C)=O`, the Potency was inconclusive: 20 µM [inhibitor, partial curve, poor fit]. With `O=C(c1ccc2c(c1)N(Cc1ccccc1F)C(=O)c1ccccc1S2=O)N1CCN(c2ccccc2)CC1` (configuration not stated) the Potency was inconclusive: 3.98 µM [inhibitor, partial curve, poor fit]. With `OCCCN=C1CCCc2c1[nH]c1ccc(Cl)cc21` the Potency was inconclusive: 20 µM [inhibitor, partial curve, poor fit]. With `C=CCn1cc2c3c(cccc31)[C@H](CC(C)C)N[C@H](C(=O)NC1CCC1)C2` the Potency was inconclusive: 56.2 µM [inhibitor, single point]. For `Fc1ccc(Nc2cc3c(cn2)CN(Cc2ccncc2)CCN3)cc1Cl`, the “activity change, negative = inhibition” value was inactive: -17.7% [at 86.2 µM]. With `Cc1ccc(C(=O)NCC(C)C)cc1C` the “activity change, negative = inhibition” value was inactive: 18.8%. `CCCOc1nccnc1NC1CCN(C(=O)C2CCCO2)CC1` (configuration not stated) was tested, and the Potency was active: 25.1 µM. With `C=CC[N+](C)(C)CC(=O)OC1CC2CCC1(C)C2(C)C` (configuration not stated) the “activity change, negative = inhibition” value was inactive: 3.49%. For `O=C(c1ccco1)N1CCC(C(=O)N2CCCC2)CC1`, the “activity change, negative = inhibition” value was inactive: 23.6%. In the case of `O=C(NC1CCN(Cc2ccccc2)CC1)c1ccc(Cn2c(=O)c3ccccc3n(Cc3ccccc3)c2=O)cc1`, the activity change, negative = inhibition is reported as inconclusive: -31.5% [inhibitor]. `CC1CCCN(CCCn2c(=O)c3c(ncn3C)n(C)c2=O)C1` (configuration not stated) was tested, and the “activity change, negative = inhibition” value was inactive: 1.64%. In the case of `Cc1ccc(-c2nc(-c3cc4cccc(OCc5cccc(C)c5)c4oc3=O)no2)cc1`, the Potency is reported as inconclusive: 5.62 µM [inhibitor, full curve, poor fit]. With `O=C1CCC2(CCCN(c3ncccc3F)C2)CN1Cc1ccncc1` (configuration not stated) the Potency was inconclusive: 28.2 µM [inhibitor, partial curve, poor fit]. With `CCN(CC)c1ccc(C(=O)N2CCC(c3c[nH]c4ccccc34)(c3c[nH]c4ccccc34)CC2)cc1` the Potency was inconclusive: 15.8 µM [inhibitor, partial curve, poor fit]. With `COc1ccc(NC(=O)c2c(Cl)cccc2Cl)cc1` the “activity change, negative = inhibition” value was inactive: 25.3%. With `COc1cccc(CCC(=O)N2CCCN(c3cc(-c4ccccc4)[nH]n3)CC2)c1` the Potency was inconclusive: 25.1 µM [inhibitor, partial curve, poor fit]. With `CCOc1cc(CNC(=O)c2ncoc2-c2cccc(Cl)c2)ccc1OC` the “activity change, negative = inhibition” value was inactive: 1.1%. `O=C(NCC1(COc2cnccn2)C[C@@H](O)[C@@H](O)C1)c1ccc(F)cc1` (some centres not stated) was tested, and the Potency was inconclusive: 35.5 µM [inhibitor, single point]. `Cc1nn(C)c(C)c1CC(=O)Nc1nc(-c2ccc(F)c(F)c2)cs1` was tested, and the “activity change, negative = inhibition” value was inactive: 4.07%. In the case of `CCC(C)C(=O)N1CCC2(CC1)NCCc1c2[nH]c2ccc(OC)cc12` (configuration not stated), the Potency is reported as active: 31.6 µM. With `O=C(NC1CCCCCC1)C1CCC(Cn2cnnn2)CC1` (configuration not stated) the “activity change, negative = inhibition” value was inactive: 3.73%. In the case of `CCN(C(=O)c1cc2c(s1)-c1ccccc1OC2)c1cc(Cl)ccc1OC`, the Potency is reported as inconclusive: 31.6 µM [inhibitor, partial curve, poor fit]. `COc1ccc(CNc2nc3nc(C)c(Cl)c(C)n3n2)cc1` was tested, and the Potency was inconclusive: 31.6 µM [inhibitor, single point]. In the case of `Cc1ccc(C(CC(=O)N2CCCCC2)c2cn(C)c3ccccc23)cc1` (configuration not stated), the Potency is reported as inconclusive: 25.1 µM [inhibitor, partial curve, poor fit]. With `CC(CCc1ccccc1)NC(=O)CNC(=O)c1cccs1` (configuration not stated) the “activity change, negative = inhibition” value was inactive: 15.5%. In the case of `O=C(NCCSc1ccc(Cl)cc1)NC1CC1`, the “activity change, negative = inhibition” value is reported as inactive: 2.09%. `COC(=O)c1cccc2nc([C@H]3CCN(Cc4ccccc4C)C3)oc12` was tested, and the Potency was inconclusive: 35.5 µM [inhibitor, single point]. `CCCCN1CCCc2cc(CN(CCCN3CCOCC3)C(=O)Nc3ccc(OCC)cc3)ccc21` was tested, and the Potency was inconclusive: 28.2 µM [inhibitor, partial curve, poor fit]. For `COC(=O)CNC(=O)c1nc(-c2ccsc2)c2cnccn12`, the Potency was active: 39.8 µM. For `COc1cccc(CN2CCc3nc(SCC(=O)Nc4ccccc4)[nH]c(=O)c3C2)c1`, the Potency was inconclusive: 17.8 µM [inhibitor, partial curve, poor fit]. With `COc1ccccc1-c1cc(C(=O)NC2CCN(C)CC2)c2ccc(Cl)c(C)c2n1` the Potency was inconclusive: 35.5 µM [inhibitor, partial curve, poor fit]. In the case of `Cc1cc(C)n(-c2nc3c(c(=O)n(C/C=C/c4ccccc4)c(=O)n3C)n2C)n1`, the “activity change, negative = inhibition” value is reported as inactive: 15.5%. In the case of `CN1C(=O)C(c2ccccc2)CC12CCN(C(=O)CN1CCCC1)CC2` (configuration not stated), the Potency is reported as active: 25.1 µM. With `COc1ccc(C(=O)n2nc(-c3ccco3)nc2NCc2cccs2)cc1` the Potency was inconclusive: 17.8 µM [inhibitor, partial curve, poor fit]. With `COCCN1CC(CO)C2(CCN(C3CCSCC3)CC2)C1` (configuration not stated) the Potency was inconclusive: 20 µM [inhibitor, partial curve]. `O=C(NCCNc1ccc2ccccc2n1)Nc1cccc2ccccc12` was tested, and the Potency was inconclusive: 22.4 µM [inhibitor, single point]. With `CCCNc1cc(C)ccc1C` the “activity change, negative = inhibition” value was inactive: 21.5%. In the case of `Cc1cccc(C(=O)N2CCC(c3nc(C4CCOCC4)no3)C2)c1` (configuration not stated), the Potency is reported as inconclusive: 31.6 µM [inhibitor, single point]. For `CN1CCC2(CCC1=O)CN(C(=O)CCOc1ccccc1)CCN2C` (configuration not stated), the Potency was inconclusive: 2.82 µM [inhibitor, full curve]. In the case of `Cc1ccccc1-c1nc(CS(=O)(=O)CC(=O)NCc2cccc(Cl)c2)c(C)o1`, the Potency is reported as inconclusive: 50.1 µM [inhibitor, single point]. For `O=C(NCc1ccc(Cl)cc1)c1ccc(N2CC3CC(C2)[C@H]2CCCC(=O)N2C3)nc1` (some centres not stated), the Potency was inconclusive: 25.1 µM [inhibitor, single point]. With `O=C(OC/C=C/c1ccccc1)c1cc2ccccc2[nH]1` the Potency was inconclusive: 35.5 µM [inhibitor, single point]. `COc1ccc(-n2ncc3c(NCCC4=CCCCC4)ncnc32)cc1` was tested, and the Potency was inconclusive: 35.5 µM [inhibitor, partial curve, poor fit]. With `c1cc(CN2CCC(N3CC(OCC4CC4)C34CCOCC4)CC2)ccn1` (configuration not stated) the Potency was inconclusive: 28.2 µM [inhibitor, partial curve, poor fit]. In the case of `Cc1ccc2nc(C3CCCN(Cc4ccc(C#N)cc4)C3)[nH]c(=O)c2c1` (configuration not stated), the Potency is reported as “inactive”. In the case of `Cc1noc(/C=C/c2ccco2)c1S(=O)(=O)N1CCC(C(=O)Nc2ccc(F)c(Cl)c2)CC1`, the Potency is reported as inconclusive: 25.1 µM [inhibitor, partial curve, poor fit]. `Cn1c(-c2cccc(Br)c2)c(-c2cn3ccccc3n2)c(=O)n(C)c1=O` was tested, and the Potency was inconclusive: 8.91 µM [inhibitor, full curve, poor fit]. With `O=C(NCCN1CCCCC1)c1ccc(-c2nnc3ccc(NC(=O)C4CCC4)cn23)cc1` the Potency was active: 22.4 µM. With `COCCOC1CN(C2CCN(CC3CCCCC3)CC2)C12CCCCC2` (configuration not stated) the “activity change, negative = inhibition” value was inactive: -1.23%. With `Cc1ccc2sc(N3CCN(C(=O)CCS(=O)(=O)c4ccc(F)cc4)CC3)nc2c1C` the activity change, negative = inhibition was inconclusive: -36% [inhibitor]. With `COC(=O)c1ccc(/C=C2\CCc3c(C)cc(C)cc3C2=O)cc1` the “activity change, negative = inhibition” value was inactive: -17.2%. In the case of `Cc1noc(C)c1COc1ccc(CC(=O)Nc2ncccc2O)cc1`, the Potency is reported as inconclusive: 35.5 µM [inhibitor, partial curve, poor fit]. In the case of `O=C(NC1CCN(c2cc(-c3cccs3)[nH]n2)CC1)c1cccc(Cl)c1`, the Potency is reported as inconclusive: 14.1 µM [inhibitor, partial curve]. For `Cc1ccc(CN2CCNC(=O)C2CC(=O)N(C)C2CCCCC2)cc1` (configuration not stated), the Potency was inconclusive: 39.8 µM [inhibitor, single point]. With `CNC(=O)c1cnn2cc(C)ccc12` the Potency was active: 31.6 µM. For `CC(Sc1nc(CN2CCOCC2)nc2ccccc12)C(=O)c1ccccc1` (configuration not stated), the “activity change, negative = inhibition” value was inactive: 11.2%. In the case of `Cc1[nH]nc2c1C(c1ccccc1C(F)(F)F)C(C#N)=C(N)O2` (configuration not stated), the “activity change, negative = inhibition” value is reported as inactive: -0.775%. With `O=C(/C=C/c1ccc(F)cc1)Nc1nc2n(n1)C(c1ccc(Cl)cc1)C=C(c1ccccc1)N2` (configuration not stated) the Potency was inconclusive: 20 µM [inhibitor, single point]. `COCC1CN(Cc2cc(F)cc(Br)c2)CC12CCNCC2` (configuration not stated) was tested, and the “activity change, negative = inhibition” value was inactive: -26.2%. In the case of `Cc1ccc2[nH]c(=O)c3cc(C(=O)NCc4ccc(F)cc4Cl)sc3c2c1`, the “activity change, negative = inhibition” value is reported as inactive: -23.5%. For `CCOC(=O)COc1ccccc1/C=C(/C#N)c1nc2ccc(C)cc2[nH]1`, the “activity change, negative = inhibition” value was inactive: -12.4%. `CCn1cc(-c2ccncc2)cc1C(=O)NCc1ccc(Cl)cc1` was tested, and the Potency was inconclusive: 28.2 µM [inhibitor, partial curve].

Source: PubChem BioAssay AID1347165 (National Center for Advancing Translational Sciences (NCATS), 2019)
Also: nearly all actives have a fitted effect of over 70% in size.
For activity change, negative = inhibition in this document: 0% is about no effect.
Potency is read from the fitted curve at half-maximal effect; tags tell the direction and shape of the fitted curve.
